{"source": "the supplement of paper PMC8728848", "binders": {"B1": {"name": "PpFlo1 (Pichia pastoris) (protein)", "chain": "MGSSHHHHHHSSGLVPRGSHMQESGDGDISDSAYACDIDATRYDGFNATIYEFQPGDGRLTRDPVFMSTGYLNRTQLHSITGVTDPGFSIYTPGVPTTTLYGIPNVNWENLLLELKGYFRAEVSGDYGLSLRNIDDSAILFFGKETAFQCCNENSISNEASTDYSLFTIFRQEGDETTNLDSFTYTQYLEAGKYYPVRTFFVNIERHAVFNFTMTLPDGTELTDFHNYIYQFGALDEEQCQA"}}, "experiment_in_all_cases": "glycan array binding signal (z-score within array); higher = stronger binding", "conditions_in_all_cases": "glycan notation: IUPAC condensed, linker removed", "key": {"[1]": {"molecular_target": "Neu5Ac(a2-8)Neu5Ac(a2-3)[GalNAc(b1-4)]Gal(b1-4)Glc", "method_in_brief": "(§1)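 Arrays were curated from the Consortium for Functional Glycomics database, 3228 in total, and kept only where the protein sequence was available. Binding is expressed as a within-array Z-score. This score was averaged across arrays of the same protein sequence at different concentrations or buffers and across linkers, and negative values can be read as non-binding.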"}, "[2]": {"molecular_target": "Neu5Ac(a2-8)Neu5Ac(a2-8)Neu5Ac", "method_in_brief": "as §1"}, "[3]": {"molecular_target": "Neu5Ac(a2-8)Neu5Ac(a2-8)Neu5Ac(a2-3)Gal(b1-4)Glc", "method_in_brief": "as §1"}, "[4]": {"molecular_target": "Neu5Ac(a2-8)Neu5Ac(a2-8)Neu5Ac(a2-3)[Gal(b1-3)GalNAc(b1-4)]Gal(b1-4)Glc", "method_in_brief": "as §1"}, "[5]": {"molecular_target": "Neu5Ac(a2-8)Neu5Ac(a2-8)Neu5Ac(a2-3)[GalNAc(b1-4)]Gal(b1-4)Glc", "method_in_brief": "as §1"}, "[6]": {"molecular_target": "Neu5Ac(a2-8)Neu5Ac(a2-8)Neu5Ac(a2-8)Neu5Ac(a2-3)[GalNAc(b1-4)]Gal(b1-4)Glc", "method_in_brief": "as §1"}, "[7]": {"molecular_target": "Neu5Ac(a2-8)Neu5Gc(a2-3)Gal(b1-4)GlcNAc", "method_in_brief": "as §1"}, "[8]": {"molecular_target": "Neu5Ac(b2-6)Gal(b1-4)GlcNAc", "method_in_brief": "as §1"}, "[9]": {"molecular_target": "Neu5Ac(b2-6)GalNAc", "method_in_brief": "as §1"}, "[10]": {"molecular_target": "Neu5Ac9Ac(a2-3)Gal(b1-3)GlcNAc", "method_in_brief": "as §1"}, "[11]": {"molecular_target": "Neu5Ac9Ac(a2-3)Gal(b1-4)GlcNAc", "method_in_brief": "as §1"}, "[12]": {"molecular_target": "Neu5Ac9Ac(a2-6)Gal(b1-4)GlcNAc", "method_in_brief": "as §1"}, "[13]": {"molecular_target": "Neu5Gc(a2-3)Gal(b1-3)GlcNAc", "method_in_brief": "as §1"}, "[14]": {"molecular_target": "Neu5Gc(a2-3)Gal(b1-3)[Fuc(a1-4)]GlcNAc", "method_in_brief": "as §1"}, "[15]": {"molecular_target": "Neu5Gc(a2-3)Gal(b1-4)Glc", "method_in_brief": "as §1"}, "[16]": {"molecular_target": "Neu5Gc(a2-3)Gal(b1-4)GlcNAc", "method_in_brief": "as §1"}, "[17]": {"molecular_target": "Neu5Gc(a2-3)Gal(b1-4)GlcNAc(b1-3)Gal(b1-4)GlcNAc(b1-2)Man(a1-3)[Neu5Gc(a2-3)Gal(b1-4)GlcNAc(b1-3)Gal(b1-4)GlcNAc(b1-2)Man(a1-6)]Man(b1-4)GlcNAc(b1-4)GlcNAc", "method_in_brief": "as §1"}, "[18]": {"molecular_target": "Neu5Gc(a2-3)Gal(b1-4)[Fuc(a1-3)]GlcNAc", "method_in_brief": "as §1"}, "[19]": {"molecular_target": "Neu5Gc(a2-6)Gal(b1-4)GlcNAc", "method_in_brief": "as §1"}, "[20]": {"molecular_target": "Neu5Gc(a2-6)GalNAc", "method_in_brief": "as §1"}, "[21]": {"molecular_target": "Neu5Gc(a2-8)Neu5Ac(a2-3)Gal(b1-4)GlcNAc", "method_in_brief": "as §1"}, "[22]": {"molecular_target": "Neu5Gc(a2-8)Neu5Gc(a2-3)Gal(b1-4)GlcNAc", "method_in_brief": "as §1"}, "[23]": {"molecular_target": "Neu5Gc(a2-8)Neu5Gc(a2-3)Gal(b1-4)GlcNAc(b1-3)Gal(b1-4)GlcNAc", "method_in_brief": "as §1"}, "[24]": {"molecular_target": "Neu5Gc(a2-8)Neu5Gc(a2-6)Gal(b1-4)GlcNAc", "method_in_brief": "as §1"}, "[25]": {"molecular_target": "Neu5Gc(b2-6)Gal(b1-4)GlcNAc", "method_in_brief": "as §1"}}, "note": "The other results are listed elsewhere or left out.", "data": [{"binder": "B1", "values": [{"measurement": "glycan array binding signal (z-score)", "setting": "[1]", "value": 0.103}, {"measurement": "glycan array binding signal (z-score)", "setting": "[2]", "value": -0.364}, {"measurement": "glycan array binding signal (z-score)", "setting": "[3]", "value": -0.016}, {"measurement": "glycan array binding signal (z-score)", "setting": "[4]", "value": 0.011}, {"measurement": "glycan array binding signal (z-score)", "setting": "[5]", "value": -0.438}, {"measurement": "glycan array binding signal (z-score)", "setting": "[6]", "value": 0.231}, {"measurement": "glycan array binding signal (z-score)", "setting": "[7]", "value": -0.499}, {"measurement": "glycan array binding signal (z-score)", "setting": "[8]", "value": 0.76}, {"measurement": "glycan array binding signal (z-score)", "setting": "[9]", "value": -0.315}, {"measurement": "glycan array binding signal (z-score)", "setting": "[10]", "value": -0.059}, {"measurement": "glycan array binding signal (z-score)", "setting": "[11]", "value": -0.191}, {"measurement": "glycan array binding signal (z-score)", "setting": "[12]", "value": -0.44}, {"measurement": "glycan array binding signal (z-score)", "setting": "[13]", "value": -0.388}, {"measurement": "glycan array binding signal (z-score)", "setting": "[14]", "value": -0.403}, {"measurement": "glycan array binding signal (z-score)", "setting": "[15]", "value": -0.317}, {"measurement": "glycan array binding signal (z-score)", "setting": "[16]", "value": -0.192}, {"measurement": "glycan array binding signal (z-score)", "setting": "[17]", "value": 0.285}, {"measurement": "glycan array binding signal (z-score)", "setting": "[18]", "value": 0.262}, {"measurement": "glycan array binding signal (z-score)", "setting": "[19]", "value": 0}, {"measurement": "glycan array binding signal (z-score)", "setting": "[20]", "value": -0.058}, {"measurement": "glycan array binding signal (z-score)", "setting": "[21]", "value": -0.196}, {"measurement": "glycan array binding signal (z-score)", "setting": "[22]", "value": -0.287}, {"measurement": "glycan array binding signal (z-score)", "setting": "[23]", "value": -0.06}, {"measurement": "glycan array binding signal (z-score)", "setting": "[24]", "value": -0.324}, {"measurement": "glycan array binding signal (z-score)", "setting": "[25]", "value": -0.354}]}]}
